Measured values as given in patent US12226490B2, “Anti-ROR1 antibody conjugates, compositions comprising anti ROR1 antibody conjugates, and methods of making and using anti-ROR1 antibody conjugates preliminary class” (Sutro Biopharma, Inc., priority 2022, dated 2025).

B1: Conjugate 1 (conjugate)
heavy: MEVQLVESGGGLVQPGGSLRLSCAASGFNISDYDIHWVRQAPGKGLEWVGGIDPADGSTDYADSVKGRFTISADTSKNTAYLQMNSLRAEDTAVYYCARDYGVYDYWGQGTLVTVSSASTKGPSVFPLAPSSKSTSGGTAALGCLVKDYFPEPVTVSWNSGALTSGVHTFPAVLQSSGLSLSSVVTVPSSSLGTQTYICNVNHKPSNTKVDKKVEPKSCDKTHTCPPCPAPELLGGPSVFLFPPKPKDTLMISRTPEVTCVVVDVSHEDPEVKFNWYVDGVEVHNAKTKPREEQYNSTYRVVSVLTVLHQDWLNGKEYKCKVSNKALPAPIEKTISKAKGQPREPQVYTLPPSREEMTKNQVSLTCLVKGFYPSDIAVEWESNGQPENNYKTTPPVLDSDGSFLYSKLTVDKSRWQQGNVFSCSVMHEALHNHYTQKSLSLSPGK
light: [about 200 residues cut from this listing]
B2: Conjugate 5 (conjugate)
heavy: MEVQLVESGGGLVQPGGSLRLSCAASGFNISDYDIHWVRQAPGKGLEWVGGIDPADGSTDYADSVKGRFTISADTSKNTAYLQMNSLRAEDTAVYYCARDYGVYDYWGQGTLVTVSSASTKGPSVFPLAPSSKSTSGGTAALGCLVKDYFPEPVTVSWNSGALTSGVHTFPAVLQSSGLYSLSSVVTVPSSSLGTQTYICNVNHKPSNTKVDKKVEPKSCDKTHTCPPCPAPELLGGPSVFLFPPKPKDTLMISRTPEVTCVVVDVSHEDPEVKFNWYVDGVEVHNAKTKPREEQYNSTYRVVSVLTVLHQDWLNGKEYKCKVSNKALPAPIEKTISKAKGQPREPQVYTLPPSREEMTKNQVSLTCLVKGFYPSDIAVEWESNGQPENNYKTTPPVLDSDGSFLYSKLTVDKSRWQQGNVFSCSVMHEALHNHYTQKSLSLSPGK
light: [about 200 residues cut from this listing]

Assays:
[1] = tested on: MDA-MB-231 tumor; assay: MDA-MB-231 TNBC xenograft model; assay type: in vivo, SCID/beige mice; conditions: Example 20; day 42; any of the tested doses (2 mg/kg to 5 mg/kg qw×4)
Procedure: (§1) The activities of ROR1-targeted ADCs described herein were examined in a MDA-MB-231 TNBC xenograft model. Briefly, SCID/beige mice were implanted subcutaneously with 5×10^6 MDA-MB-231 tumor cells in the mammary fat pad and randomized and enrolled into the study 7 days post implant, with tumor sizes around 130 mm^3. Tumor-bearing mice were administered four weekly doses (qw×4) of the test articles at doses ranging from 2 mg/kg to 5 mg/kg. All treatments were well tolerated with normal body weight gain throughout the course of the study.
as §1, with “SCID/beige” for “The activities of ROR1-targeted ADCs described herein were examined in a MDA-MB-231 TNBC xenograft model. Briefly, SCID/beige”
as §1, with “SCID/beige” for “The activities of ROR1-targeted ADCs described herein were examined in a MDA-MB-231 TNBC xenograft model. Briefly, SCID/beige”, “three” for “four”, “(qw×3)” for “(qw×4)”, “study. […]” for “study.”

[2] = tested on: ROR1 negative MCF7 cells; assay: In vitro cell killing of ROR1 ADCs, ROR1 negative cells (Cell Titer-Glo, 120 hours); assay type: cell-based, human; conditions: second Table 14
Excerpt: Ntera-2, MDA-MB-231, MCF7, HCT116 and Mino cells were obtained from ATCC. HCT116-hRor1-D02 clone was generated by transfecting HCT116 cells with a plasmid containing human Ror1 cDNA sequence and selected for highest stable expression of hRor1 on the cell surface. MDA-MB-231, MCF7, HCT116 and HCT116-Ror1 cell were maintained in Ham's F-12 high glucose DMEM (50-50) (Cellgro-Mediatech; Manassas, VA) supplemented with 10% heat-inactivated fetal bovine serum (Hyclone; Thermo Scientific; Waltham, MA), 1% Penicillin/Streptomycin (Cellgro-Mediatech; Manassas, VA) and 2 mmol/L-glutamax (Life Technology; Carlsbad, CA). […]
Anti-ROR1 antibody was conjugated to different linker-warheads described herein at different DARs and the cell killing activity of the ADCs were evaluated on ROR1 positive Ntera-2 cell and ROR1 negative MCF7 cells.
Ntera-2 or MCF7 cell at 625 cells/25 μL were seeded in a 384-well flat bottom white polystyrene plate one day before the assay start. […] Relative luminescence was measured on an ENVISION® plate reader (Perkin-Elmer; Waltham, MA). Relative luminescence readings were converted to % viability using untreated cells as controls. […]

| Molecule | TGI compared to the vehicle-treated group [1] | MCF-7 Span [2] [%] |
| --- | --- | --- |
| B1 | did not demonstrate significant TGI |  |
| B2 |  | <20 |
